Laboratory results: PubChem BioAssay AID504706 (National Center for Advancing Translational Sciences (NCATS), 2011)
Hit rate of the full screen: of about 320,000 compounds, about 200 (0.062%) were called active. Inconclusive means that the source gave no clear call. Such entries were picked first, then a sample of the others. Calls come from the whole dose curve; as a rule, active = well fitted activation curve with a large enough effect; inconclusive = small, poorly fitted or top-dose-only effect; inactive = no such curve, though single readings can be large or run the other way. No potency is given beside an inconclusive call; the fits are too rough.

Assay: qHTS assay for re-activators of p53 using a Luc reporter; note: nearly all actives have a fitted effect of over 45% in size; for activity change, positive = activation: % of control where 0% means no effect
Conditions: H1299 p53-A138V BP100-luciferase reporter, luminescence, 24 h; series mostly up to 92.2 µM; activity change, positive = activation: at the top concentration
Method in brief: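 p53-null H1299 cells stably carrying temperature-sensitive p53-A138V and a BP100-luciferase reporter were pinned with compounds (4-point, 1:5 series) and held 24 hrs at 37 deg C. Luminescence was read 10 min after detection reagent.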
Potency is the fitted concentration of half-maximal effect; tags give direction and shape of the fitted curve.

| Compound | Potency | activity change, positive = activation |
| --- | --- | --- |
| S=C(c1ccc(N2CCCC2)cc1)N1CCCCC1 | inconclusive [activator, single point] | – |
| COc1ccc(C(=O)N/N=C/c2ccc3cccc(OCc4ccccc4)c3n2)cc1 | inconclusive [activator, partial curve, poor fit] | – |
| COc1cc(OC)cc(C(=O)NCCC(c2ccccc2)c2ccccc2)c1 | – | inactive: -1.35% |
| Cn1c(CN2CCN(C(=O)c3ccccc3)CC2)nc2cc([N+](=O)[O-])ccc21 | inconclusive [activator, partial curve, poor fit] | – |
| O=C(Nc1cccc(Cl)c1)c1cnc[nH]1 | inconclusive [activator, partial curve, poor fit] | – |
| Cc1cc(C)nc(N/N=C/C(Cl)=C/c2ccccc2)n1 | – | inactive: 16.7% |
| O=C(Nc1ccc(-c2nc3cc(Cl)ccc3o2)cc1)C1CCCO1 (configuration not stated) | inconclusive [activator, partial curve, poor fit] | – |
| Cc1ccc(SC/C(O)=C(\C#N)c2nc3ccccc3s2)cc1 | inconclusive [activator, single point] | – |
| COc1ccc(NS(=O)(=O)c2ccc(NC(C)=O)cc2)cc1OC | inconclusive [activator, partial curve, poor fit] | – |
| Cc1ccc(NC(=O)CSc2nc(O)cc(=O)n2-c2ccc(C)cc2)cc1 | – | inactive: 17% |
| O=C(CN1C(=O)/C(=C\c2cccc(F)c2)Oc2ccccc21)N1CCN(c2ccccn2)CC1 | – | inactive: 0.0843% |
| Cc1cccc(NC(=O)CSCC(=O)Nc2nnc(C3CC3)s2)c1 | inconclusive [activator, partial curve, poor fit] | – |
| COc1cccc(C2=CC(c3cccc(OC)c3OC)n3nnnc3N2)c1 (configuration not stated) | inconclusive [activator, partial curve, poor fit] | – |
| Cc1cc(-c2ccccc2)n(-c2ccccc2)n1 | inconclusive [activator, single point] | – |
| COc1ccc(C(=O)c2oc3ccc(OC)cc3c2N)cc1 | inconclusive [activator, full curve, poor fit] | – |
| COC(=O)c1c(NC(=O)Cc2cccs2)sc2c1CCC(C)C2 (configuration not stated) | – | inactive: 4.66% |
| COc1ccc(C(=O)/C=C(\C)Nc2ccc3c(c2)OCO3)cc1 | inconclusive [activator, partial curve, poor fit] | – |
| O=C(CCN1CCc2ccccc2C1)Nc1ccc2c(c1)OCO2 | inconclusive [activator, partial curve, poor fit] | – |
| CC(=O)c1sc(NC(=O)c2cc(-c3ccccc3)nn2-c2ccccc2)nc1C | – | inactive: -2.49% |
| CCc1ccc2oc(C(=O)Nc3nonc3CC)c(C)c2c1 | inconclusive [activator, partial curve, poor fit] | – |
| O=C(Cc1csc(NC(=O)Nc2cccc(Cl)c2)n1)NCc1cccnc1 | inconclusive [activator, full curve, poor fit] | – |
| N#C/C(C(=O)N1CCOCC1)=C1\Nc2ccccc2S1 | inconclusive [activator, full curve, poor fit] | – |
| O=C(CCC(=O)N1CCSc2ccccc21)NCc1cccc(Cl)c1 | – | inactive: 2.54% |

| Compound | Potency | activity change, positive = activation |
| --- | --- | --- |
| COc1cc([N+](=O)[O-])ccc1NC(=S)NC(=O)CC(C)(C)C | – | inactive: 7.19% |
| O=C(CNC(=O)c1ccc(OC(F)F)cc1)Nc1cccc(S(=O)(=O)N2CCCC2)c1 | – | inactive: 0.915% |
| COc1ccc(C(=O)C2CCCN(Cc3cn(C)nc3-c3ccccc3)C2)cc1F (configuration not stated) | – | inactive: -4.52% |
| Cc1ccc(C2=NN3C(C(=O)c4ccccc4)Oc4ccccc4C3C2)cc1 (configuration not stated) | inconclusive [activator, full curve, poor fit] | – |
| CCCCN1C(=O)/C(=C/C=C2/CC(C)(C)CN2C)SC1=S | inconclusive [activator, partial curve, poor fit] | – |
| Cn1cnnc1SCC(=O)c1ccc2c(c1)CCCC2 | inconclusive [activator, partial curve, poor fit] | – |
| COc1ccc(C(=O)OCC(=O)c2ccc[nH]2)cc1 | inconclusive [activator, partial curve, poor fit] | – |
| CCCCc1nc2cc(C(=O)N3CCN(c4nc(C)cnc4C)CC3)ccc2o1 | inconclusive [activator, partial curve, poor fit] | – |
| Cc1cc(=O)[nH]c(N/N=C2/CCCC/C2=C\c2ccccc2)n1 | – | inactive: 1.85% |
| Cc1ccccc1NC(=O)Cn1c(O)c(N=NC(=O)c2ccccc2O)c2ccccc21 | – | inactive: -1.82% |
| CCc1nonc1NC(=O)c1oc2ccccc2c1C | inconclusive [activator, partial curve, poor fit] | – |
| Cc1sc(NC(=O)c2ccco2)nc1-c1ccccc1 | inconclusive [activator, partial curve, poor fit] | – |
| O=[N+]([O-])c1cc(C(F)(F)F)cc([N+](=O)[O-])c1NN=C1CCCCC1 | inconclusive [activator, partial curve, poor fit] | – |
| COCCNC(=O)c1cc(-c2ccccc2OC)on1 | inconclusive [activator, partial curve, poor fit] | – |
| COC(=O)Cc1[nH]n(-c2nc3ccccc3s2)c(=O)c1C(C)=O | inconclusive [activator, partial curve, poor fit] | – |
| CN1CCN(CC(O)COc2ccc(Cl)cc2)CC1 (configuration not stated) | – | inactive: -0.316% |
| C[C@H]1CCC(=O)N(CCSc2ccc(Br)cc2)CC1 | inconclusive [activator, single point] | – |
| COc1ccc(C(=O)CCNc2cccc(Cl)c2)cc1 | inconclusive [activator, partial curve, poor fit] | – |
| Oc1ccc(/C=N/N2CCN(c3ccccn3)CC2)cc1 | – | inactive: 7.62% |
| COc1cccc(CNC(=O)C(NS(=O)(=O)c2ccc3c(c2)CCN3C(C)=O)C(C)C)c1 (configuration not stated) | inconclusive [activator, single point] | – |
| COc1ccc(C(CC(=O)c2ccccc2)S(=O)(=O)c2ccccc2)cc1 (configuration not stated) | inconclusive [activator, full curve, poor fit] | – |
| Cc1cc(OCc2ccc(F)cc2)nc(-c2ccccc2O)n1 | inconclusive [activator, partial curve, poor fit] | – |
| CC(=O)Nc1cc(C(=O)OCC(=O)c2ccccc2)ccc1C | inconclusive [activator, partial curve, poor fit] | – |

| Compound | Potency | activity change, positive = activation |
| --- | --- | --- |
| O=C(Nc1ccccc1)Nc1nnc(Cc2ccccc2F)s1 | inconclusive [activator, single point] | – |
| O=C(Nc1ccc(C2CC2(Cl)Cl)cc1)c1ccccc1Br (configuration not stated) | inconclusive [activator, partial curve, poor fit] | – |
| N=C1C(c2nc3ccccc3s2)=C(O)CN1Cc1ccco1 | inconclusive [activator, partial curve, poor fit] | – |
| O=C(NCCc1nnc2ccccn12)c1cccs1 | inconclusive [activator, partial curve, poor fit] | – |
| Cc1nc2c(C)cccn2c(=O)c1NC(=O)c1cccc2ccccc12 | inconclusive [activator, full curve, poor fit] | – |
| C=CCSc1nnc(-c2ccc([N+](=O)[O-])cc2)o1 | inconclusive [activator, partial curve, poor fit] | – |
| CCc1cc(C(=O)Nc2ccc(C)cc2Br)cs1 | inconclusive [activator, full curve, poor fit] | – |
| Cc1cc2c(c(=O)o1)C(C(C)C)C(C#N)=C(N)O2 (configuration not stated) | – | inactive: 4.61% |
| Nc1c(Cl)ncnc1N/N=C/c1ccc2ccccc2n1 | inconclusive [activator, partial curve, poor fit] | – |
| O=C(Nc1ccc(Cl)cn1)c1ccc(COCC(F)(F)C(F)F)o1 | inconclusive [activator, single point] | – |
| Cc1ccc(N2C(=O)c3ccccc3C2=O)cc1Cl | inconclusive [activator, partial curve, poor fit] | – |
| Cc1ccc(S(=O)(=O)N2CCOCC2)cc1C(=O)NCc1ccco1 | inconclusive [activator, single point] | – |
| O=C(CNC(=O)c1ccc2c(c1)OCCO2)N/N=C/c1ccc(O)cc1O | – | inactive: 5.59% |
| CCN(CC)C1CC(=O)N(c2ccc(Br)cc2)C1=O (configuration not stated) | inconclusive [activator, single point] | – |
| COc1ccc(C2N3CC4(C)CN2CC(C)(C3)C4)cc1OC (configuration not stated) | – | inactive: -2.08% |
| CCn1nccc1C(=O)Nc1cccc(C)c1C | inconclusive [activator, single point] | – |
| COc1ccc(/C=N/OCC(=O)Nc2nc3ccccc3s2)cc1 | inconclusive [activator, partial curve, poor fit] | – |
| CCCc1cc(C(=O)Nc2ccc(Cl)cn2)cs1 | inconclusive [activator, full curve, poor fit] | – |
| Cc1nnsc1C(=O)N/N=C/c1ccc2ccccc2c1O | inconclusive [activator, partial curve, poor fit] | – |
| O=c1ccn(-c2cccc(C(F)(F)F)c2)nc1-c1ccn(-c2ccccc2)n1 | – | inactive: -3.95% |
| Nc1cc(C(=O)OCC(=O)N2CCOCC2)ccc1Cl | inconclusive [activator, partial curve, poor fit] | – |
